# Source: the supplement of paper PMC11417369
# The list shows a part of the results.
# System: PfAP2-HC AP2 domain (GST-tagged)
# Test: gcPBM binding intensity (ln(normalized median fluorescence intensity)); higher = stronger DNA binding
# Outline: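 For binding intensity, the highest Masliner-normalised natural-log median intensity across replicate spots of either probe orientation was taken. Protein bound to the array was stained with Alexa488 anti-GST antibody and scanned at 488 nm. The protein, GST-tagged P. falciparum DNA-binding domains from E. coli at about 25 μg on average, had been applied for 1 h to an Agilent 4 × 180k array of primer-extended double-stranded 36-bp intergenic genomic probes and negative controls.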
row,Sequence,gcPBM binding intensity (ln)
1,TTATATTTATAAAATTGTATACCCCTTCTAACTTTC [CACACA_negctrl_site250],9.5
2,ATTGTGCTCATCAGCACACACAACATCATGTAATAA [CACACA_site1863],9.83
3,TATATGGTATGTATTACACACATATCACATATAGAT [CACACA_site7426],9.77
4,TATATATATATATAATGTACTTATATTTTTTTGAGG [XGTACX_site2638],9.48
5,ATATGTATAAGTATGTATATTTATTTATACTTATGT [GTGCAC_negctrl_site221],9.73
6,TTAATTAAAACGAATACACACATAAATATGTAAAAG [CACACA_site6707],9.86
7,AAAAAAAAAAAAAAAAGTACATATATATATTTATAT [XGTACX_site5893],9.46
8,TTCTTATTTAATGTATCACACACGAGAATAAAAAAT [CACACA_site8992],9.73
9,ACATTTAATGTTATATGTACATAATATTATAAGTAT [XGTACX_site1393],9.75
10,CATATGGCAATAATTACATGCAAAAAAAAAAAAAAA [TGCATGCA_site578],9.36
11,AGCCATATCTTTTTTGCACACACTACAATAAAACAA [CACACA_site1650],9.84
12,AATGTAAAAGTAAACACACACATATATTTATACATA [CACACA_site7218],10.7
13,ACAGACGTTCAAAGGTGTACGCAAAATGAATAATAT [XGTACX_site7565],9.65
14,GTAAATCGACACATACGTACATACATTTATATATAT [XGTACX_site3143],9.91
15,AAAAAAAAGAAAAACACACACATATATATATATAAT [CACACA_site4707],10.2
16,ACATTATATTTGGACTGTACTAATATATTGTTATAT [XGTACX_site5573],9.65
17,TATACATATATATATTGTACATATTATATATATATA [XGTACX_site3286],9.59
18,ATATATATATATATATGTACATATTGTATCTTATAC [XGTACX_site5466],9.69
19,TATCTTTTTATTTTTTATTTTTTTTTTATAATTTAC [XGTACX_negctrl_site414],9.56

row,Sequence,gcPBM binding intensity (ln)
1,TCATTGAAAATTGTTGCACACATAATAATTAAATAT [CACACA_site8554],9.71
2,ACACATATGTCTTCATGTACATAATATATAAATCTT [XGTACX_site3438],9.68
3,CATAAATCAGCCATAACACACATACATATATACATA [CACACA_site8025],10
4,TCTTGTTTATCAACAGCACACACAACAACAACAACA [CACACA_site8046],9.99
5,TATATATATACAGTTGCATGTTGTGTTTAAAATTTT [TGCATGCA_site816],9.85
6,TGTTAAAAAATGGATGCACACATTAAATAAAAAGTA [CACACA_site1660],9.89
7,TAAAGGTAGATATATTGTACATACACACCTATATAA [XGTACX_site6865],9.66
8,TTATATTTAGTATATGCACACTTTATGTTTGTTATT [CACACA_site5163],9.91
9,TATAAATACGAACACACACACCTTATAATTACTACT [CACACA_site7827],10.4
10,AAGAAAGGTTAAACATGTACATAAATATTTTACATA [XGTACX_site5024],9.64
11,AAAAACCATTGGCACACACACATAATATATAATATA [CACACA_site4903],11.4
12,CTTTAAACCCTGAACACACACAAATACAGACAAAAA [CACACA_site247],10.1
13,GTATTTTAATATAAATGTACATAAATGTTATATATA [XGTACX_site3475],9.67
14,AATATTGTATATAATAAACACACAATATTAAAAATA [CACACA_site8262],10.1
15,TACACAAGAAAATTCACACACACACGGATATTTATA [CACACA_site7765],10.6
16,GTATCGAAGTAAATACGTACTTAAATATGTTTAAAA [XGTACX_site1353],9.48
17,ACGTACTGCCCTAAAGTGCATATATAATATAAACGA [GTGCAC_site9911],9.52
18,ATATGACTTAAATATGTGCGCATTTTTTTTTTTTTT,9.83
19,CATATATAAATCATGTGTACGTATTGAGTATCTACT [XGTACX_site6278],9.65

row,Sequence,gcPBM binding intensity (ln)
1,AGGATATATAATTAAGTGCATTAATTCAAAATAAAA [GTGCAC_site9702],9.67
2,TTATTATTTTATAACACACACATATATATTATATCT [CACACA_site1434],9.98
3,ATAAGATATGTATATACACACATTTATTTACCTATA [CACACA_site7521],9.89
4,TAAACAAAATATATATGTACATATATATATATATAT [XGTACX_site6502],9.66
5,TTTTATTTGACAAGCACACACTTAAATATATTTATA [CACACA_site7557],9.85
6,AAAACATTTTCAAACTGTACACATAGAACTATGCAT [XGTACX_site4087],9.62
7,ACATAAGAAGTTATATGTACATATATTTTTTAAATT [XGTACX_site8078],9.69
8,ATCTAGCCATTTTTTAGTACACATAAATAAAAAAAA [XGTACX_site1257],9.41
9,CATTAATAACAAAGTTGTACAAGATAATATTATATG [XGTACX_site6832],9.87
10,TATATTTTAGTTAATGCATGTGTGCATCCATTTAAA [TGCATGCA_site887],9.69
11,ATACATATATATATATGTACACACATTAATAAAAAA [XGTACX_site6874],9.89
12,TATAAATAAATTTATACACACACACCCATATATATA [CACACA_site8183],10.3
13,TACCAAAATAGACACACACACAAAATATGTAAATAT [CACACA_site6963],11
14,TTTGTTATATTTAATACACACATATTATAAACCCAT [CACACA_site3716],9.87
15,ATAAAGCCATACAATACACACATTTTACATGGCTGT [CACACA_site5756],9.82
16,TAAAATTAGGAAATTGCACACAAAAAAAAACATATT [CACACA_site9349],10.3
17,AAAAAAAAAAGACACACACACAAATACAAATGGTAA [CACACA_site6906],10.5
18,ACCCAATTTTTTAGTACACACATATAAATATATAAA [CACACA_site4944],9.7
19,TAAAACATGTTTTTATATATTATTATTATATTTATA [XGTACX_negctrl_site8],9.62
